The source of these data is ChEMBL document CHEMBL4888484, “Replenishing the malaria drug discovery pipeline: Screening and hit evaluation of the MMV Hit Generation Library 1 (HGL1) against asexual blood stage Plasmodium falciparum ,using a nano luciferase reporter read-out” (2022).

Molecules are shown by their SMILES. In all, about 150,000 compounds went through this assay and about 540 (0.36%) showed an effect of 50% or more. Some of the results follow.

This assay relates to Plasmodium falciparum. The experiment in a line: Primary screen in NF54 nanoGlo assay, in single point, at 2uM, 72h; a lower Z score goes with more inhibition. It counts as functional, Erythrocyte. The following applies: timepoint 72 hour.
For the compound `CCn1ccnc1-c1cccc(NC(=O)c2cnc3c(c2)ncn3C)c1`, the % Inhibition (usually the relative decrease from the control value, in per cent) is -5% and the Z score came out at 0.69.
The matching figures for `COc1cc(Oc2cncc(C(N)=O)n2)ccc1CN1CCCC1`: -5% and 0.96.
The matching figures for `Fc1ccccc1OCCN1CC(n2cccn2)C1`: -9% and 1.07.
The matching figures for `CC(C)n1ccc(Cn2cnnc2[C@H](O)c2ccccc2)n1`: -5% and 0.67.
On to `Cc1nnc(C(NC(=O)C2CC2c2ccccc2)c2ccccc2)n1C` (centres undefined), for which the “% Inhibition” value came out at 9% and the Z score is given as -1.05.
With `O=C(CCC1CCN(Cc2nc3ccccc3[nH]2)CC1)NC[C@H]1CCCO1`, the “% Inhibition” value is listed as -3% and the Z score amounted to 0.63.
In the case of `Cc1cc(=O)c(C(=O)N2CCC3(CC2)CC(=O)NC(=O)C3)cn1C`, the “% Inhibition” value is given as -7% and the Z score came to 1.2.
The corresponding values for `C[C@H](OC(=O)c1ccc2c(c1)OCCCO2)C(=O)Nc1ccccc1C(F)(F)F` are -9% and 1.07.
Turning to `CCO[C@H]1CCCC[C@@H]1NC(=O)c1cc(O)ccn1`, the “% Inhibition” value is listed as 7% and the Z score is recorded as -1.19.
On to `CNC(=O)c1cc(S(=O)(=O)N2CC(C)OC(C)C2)ccc1N1CCCCC1` (centres undefined), for which the “% Inhibition” value is on record as -4% and the Z score is 0.76.
With `CCC=C(C)C(=O)N(C)Cc1cccnc1`, the “% Inhibition” value was -13% and the Z score amounted to 1.34.
In the case of `CN(C(=O)CC1C=CCC1)C1CCN(CC(F)(F)F)C1=O` (centres undefined), the “% Inhibition” value came to 6% and the Z score is given as -0.77.
Turning to `CCC(C)c1csc(N(C)C(=O)C2CCOC2C)n1` (centres undefined), the “% Inhibition” value is reported as -14% and the Z score stood at 1.79.
Turning to `CCOc1ccccc1N1C[C@@H](c2nc(C3=NOCC3)no2)CC1=O`, the “% Inhibition” value was -16% and the Z score is on record as 1.74.
On to `O=c1c(S(=O)(=O)N2CCCC2)cccn1Cc1cc(F)cc(F)c1`, for which the “% Inhibition” value is -7% and the Z score was found to be 1.
The corresponding values for `C[C@H]1[C@@H](C(F)(F)F)OCCN1C(=O)c1nccc2cccnc12` are -6% and 1.12.
With `Cc1cccc(NC(=O)CN2CCC[C@H](CNC(=O)c3cncn3C)C2)c1C`, the “% Inhibition” value was -4% and the Z score was 0.55.
Consider `CCC(C)NC(=O)CC(c1cccs1)c1cn(Cc2ccc(F)cc2)c2ccccc12` (centres undefined), for which the “% Inhibition” value is reported as -10% and the Z score is on record as 1.02.
As for `NC(=O)c1ccc(C(F)(F)F)n(CC(=O)N(Cc2ccc(F)cc2)C2CCCCC2)c1=O`, the “% Inhibition” value worked out at 42% and the Z score is recorded as -5.42.
Regarding `CN(Cc1ccc2cccc(Cl)c2n1)[C@@H]1CCCC[C@@H]1O`, the “% Inhibition” value amounted to 7% and the Z score is reported as -1.05.
In the case of `CCCC1CCC(NS(=O)(=O)C2CCS(=O)(=O)CC2)CC1` (centres undefined), the “% Inhibition” value was -3% and the Z score is recorded as 0.24.
The corresponding values for `O=C(c1cccc2ccc(O)nc12)N1CCNC[C@H]1C(F)F` are 11% and -1.68.
Regarding `S=c1sc2c(N3CCN(Cc4ccccc4)CC3)ncnc2n1-c1ccccc1`, the “% Inhibition” value is -12% and the Z score is 1.25.
For `CC(C)CCC(=O)NCC(=O)N(C)c1cnn(C)c1`, the “% Inhibition” value was -7% and the Z score came to 1.46.
The corresponding values for `CC(=O)N[C@H]1CCN(C(=O)c2cc(C(C)C)nn2C)C1` are -3% and 0.43.
On to `Cc1nnc2ccc(N3CCCN(C(=O)c4ccc(COC(C)C)o4)CC3)nn12`, for which the “% Inhibition” value is -15% and the Z score amounted to 1.7.
For `COCCN[C@H]1[C@@H]2OC[C@@H](O2)[C@@H](NCc2ccccc2)[C@@H]1O`, the “% Inhibition” value came to 6% and the Z score is -0.76.
The corresponding values for `Cc1c(C(=O)Nc2ccc(F)c(F)c2)nnn1CC(=O)NCCc1ccc(Cl)cc1` are 8% and -1.17.
The matching figures for `O=C(N[C@@H](CO)C1CCC1)c1cnn2cccc(Br)c12`: -11% and 1.34.
In the case of `CN1CCOC[C@@H](CNC(=O)c2ccc(-c3cnc(N)nc3)cc2)C1`, the “% Inhibition” value is recorded as -6% and the Z score came to 0.55.
The corresponding values for `Cc1ccc(Cc2cnc(NC(=O)CCc3c(C)nn(CCC#N)c3C)s2)cc1Cl` are 8% and -1.33.
The matching figures for `Cc1cc(=O)[nH]c(NCCN2C[C@@](C)(c3ccccc3)CCC2=O)n1`: 7% and -1.25.
With `Cc1noc(CN2CCC[C@@H]2C(F)F)n1`, the “% Inhibition” value was found to be 2% and the Z score was -0.31.
With `O=C(O)CCC1CCN(C(=O)C2CCC(F)(F)CC2)CC1`, the “% Inhibition” value is -10% and the Z score is 1.33.
As to `CCN(C)CC(=O)N1CC[C@@]2(CCCN(CCc3ccccc3)C2)C1`, the “% Inhibition” value is -8% and the Z score amounted to 0.93.
The matching figures for `CCc1nnc(NC(=O)c2cc(-c3ccc(C)c(C)c3)on2)s1`: -2% and 0.3.
The matching figures for `Cc1cnc2c(C)cccc2c1N1CC[C@H](OC(F)F)C1`: -4% and 0.64.
The matching figures for `Cn1cc(Cl)cc1C(=O)N(Cc1ccncc1)C1CC1`: 5% and -0.5.
For `COCC[C@]1(c2noc(C3CCOCC3)n2)CCCN(Cc2cn(C)nc2C)C1`, the “% Inhibition” value was found to be 2% and the Z score is -0.25.
The corresponding values for `Cc1cnn([C@@H](C)CNC(=O)c2ccncc2Cl)c1` are -3% and 0.38.
For `CO[C@H]1CNC[C@@H]1Nc1nc(-c2ccccc2)no1`, the “% Inhibition” value was -10% and the Z score turned out to be 2.04.
The matching figures for `O=S(=O)(c1ccccc1Br)N1CC(Nc2ncccn2)C1`: 7% and -0.79.
